Data as given in patent US20040266790A1 (priority 2003, published 2004).

Columns and labels:
[1] = pH of a saturated aqueous solution; settings: no buffer
[2] = reported by U.S. Pat. No. 5,616,587; method not described; cited from earlier work

Cc1nc2n(c(=O)c1CCN1CCC(c3noc4cc(F)ccc34)CC1)CCCC2 [Example 2, Risperidone Monohydrochloride]
water content (after exposure to air under ambient conditions for 3 weeks (initial 0.18%)): 0.39%

Cc1nc2n(c(=O)c1CCN1CCC(c3noc4cc(F)ccc34)CC1)CCCC2.Cc1nc2n(c(=O)c1CCN1CCC(c3noc4cc(F)ccc34)CC1)CCCC2.Cl.Cl.O.O.O.O.O [risperidone monohydrochloride hph, Risperidone Hydrochloride Hemipentahydrate]
water content (after heating at 80° C. for only 1.5 hours): 1.2% | water content after re-uptake of water (dehydrated sample re-exposed, expected, other experiments confirmed): about 8.9% | water content (dried in vacuo at 40° C. for five days): 0.55%

Cc1nc2n(c(=O)c1CCN1CCC(c3noc4cc(F)ccc34)CC1)CCCC2 [risperidone monohydrochloride, Risperidone Monohydrochloride]
inherent or native pH of a saturated aqueous solution [1]: about 5

risperidone tartrate
room temperature solubility [2]: about 80 mg/ml

Counter-ions that a name gives are not always drawn. Like-named read-outs stand apart in the source and are kept apart here.
